# The campaign covered roughly 310,000 compounds. About 14,000 (4.5%) showed an effect of 50% or more. Effects have a minus sign here. The list shows a part of the results.
# Target: human ether-à-go-go-related gene (hERG) potassium channel (human, UniProt Q12809)
# Assay: primary screen, population patch clamp on CHO cells stably expressing hERG
# 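Note: peak tail current of the secondary pulse compared with the same well before compound.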
# Chain of human ether-à-go-go-related gene (hERG) potassium channel (Q12809 whole entry, looked up): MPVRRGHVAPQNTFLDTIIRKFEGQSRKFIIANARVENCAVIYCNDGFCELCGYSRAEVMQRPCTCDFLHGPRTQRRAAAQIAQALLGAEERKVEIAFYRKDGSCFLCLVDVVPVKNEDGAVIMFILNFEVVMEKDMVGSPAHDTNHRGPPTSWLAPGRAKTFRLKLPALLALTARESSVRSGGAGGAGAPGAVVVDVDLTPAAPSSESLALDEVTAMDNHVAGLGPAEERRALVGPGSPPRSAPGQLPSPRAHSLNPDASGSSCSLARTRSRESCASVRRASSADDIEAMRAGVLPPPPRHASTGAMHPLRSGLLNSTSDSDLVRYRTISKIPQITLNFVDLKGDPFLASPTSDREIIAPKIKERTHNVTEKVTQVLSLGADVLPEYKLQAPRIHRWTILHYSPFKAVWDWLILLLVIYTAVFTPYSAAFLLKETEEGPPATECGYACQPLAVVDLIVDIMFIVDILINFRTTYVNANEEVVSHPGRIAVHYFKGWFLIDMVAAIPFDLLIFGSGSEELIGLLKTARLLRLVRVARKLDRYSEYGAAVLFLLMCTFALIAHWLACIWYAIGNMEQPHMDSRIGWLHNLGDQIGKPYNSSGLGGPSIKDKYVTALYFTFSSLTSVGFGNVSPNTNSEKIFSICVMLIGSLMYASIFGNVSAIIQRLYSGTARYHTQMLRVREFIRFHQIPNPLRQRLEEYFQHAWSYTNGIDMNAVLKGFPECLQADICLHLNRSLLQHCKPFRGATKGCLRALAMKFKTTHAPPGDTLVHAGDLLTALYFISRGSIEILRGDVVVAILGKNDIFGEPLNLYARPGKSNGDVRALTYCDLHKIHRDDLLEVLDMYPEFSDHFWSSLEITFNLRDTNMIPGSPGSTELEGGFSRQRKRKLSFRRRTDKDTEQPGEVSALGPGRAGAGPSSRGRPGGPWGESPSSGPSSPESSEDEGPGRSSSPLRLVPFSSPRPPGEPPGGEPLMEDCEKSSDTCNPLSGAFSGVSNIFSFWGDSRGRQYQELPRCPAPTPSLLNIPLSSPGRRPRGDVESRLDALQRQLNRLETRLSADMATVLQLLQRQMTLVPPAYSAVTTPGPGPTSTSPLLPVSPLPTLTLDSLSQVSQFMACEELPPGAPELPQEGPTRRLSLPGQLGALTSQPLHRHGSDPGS
row,SMILES,"hERG current change (%, negative = inhibition) at 10uM [%]"
1,COc1ccc(/C=N/OCc2ccccc2C#N)c(OC)c1,12.9
2,Cc1ccsc1C=C1C(=O)c2ccccc2C1=O,15.3
3,CS(=O)(=O)c1nc(S(=O)(=O)c2ccc(Cl)cc2)c(N2CCCCCC2)s1,8.54
4,Cc1ccc(NC(=S)Nc2cc(-c3ccccc3)[nH]n2)cc1Cl,20.5
5,O=C(N/N=C/c1ccc(O)c(O)c1)c1cc(-c2ccccc2)nc2ccccc12,10.1
6,COc1ccc(S(=O)(=O)N2CCc3ccccc32)cc1C(=O)O,-6.25
7,CCc1ccc(NC(=O)CCNC(=O)Cn2ccc3ccccc3c2=O)cc1,23
8,CC(=O)Nc1cccc(C(=O)OCC(=O)c2ccc(S(=O)(=O)N3CCCCC3)cc2)c1,-1.9
9,O=C(O)CCCC(=O)Nc1ccc2c(c1)oc1ccccc12,5.13
10,Cc1ccc(NC(=O)CSCC(=O)Nc2cc(Cl)ccc2N2CCN(C)CC2)cc1,-53.1
11,N=c1oc2c3c4c(cc2cc1C(=O)Nc1ccccc1)CCCN4CCC3,-29.6
12,O=c1cc(NC2CCCCC2)c2ccccc2o1,-7.56
13,CC(C)CCN1CCN(Cc2coc3ccccc3c2=O)CC1CCO (centres unmarked),-8.64
14,CCN1C(=O)c2ccc(C(=O)Nc3ccc(O)cc3C)cc2C1=O,23.5
15,CCCn1c(CCNC(=O)c2ccco2)nc2ccccc21,-10.1
16,O=C(COc1cccc(F)c1)Oc1ccc(C(=O)c2ccccc2)cc1,4.73
17,O=C1NCC(COc2ccc([N+](=O)[O-])cc2)O1 (centres unmarked),-78.4
18,N#Cc1ccc(C(=O)Nc2ccc(N3CCN(C(=O)c4ccco4)CC3)cc2)c(F)c1,-4.42
19,Cc1cccnc1NCC(O)COc1ccccc1 (centres unmarked),-37.5
20,COc1ccc(N2C(=O)C3C4C=CC(C4)C3C2=O)c(OC)c1 (centres unmarked),12.6
21,COC(=O)C1=C(c2c(C)noc2C)C[C@@H]2CC[C@H]1N2C(=O)NC1CC1,12.8
22,COc1ccc(S(=O)(=O)N2CCN(CC(=O)Nc3cc(Cl)ccc3Cl)CC2)cc1,-7.44

row,SMILES,"hERG current change (%, negative = inhibition) at 10uM [%]"
1,COc1ccccc1-c1cc(C(=O)N/N=C/C=C/c2ccccc2[N+](=O)[O-])c2ccccc2n1,8.13
2,COCCNC(=O)c1ccc2nc(Cc3ccc(OC)c(OC)c3)oc2c1,17.1
3,O=C(CC(NC(=O)C(F)(F)F)c1ccccc1)Nc1nnc(CCc2ccccc2)s1 (centres unmarked),5.81
4,COc1cc(S(=O)(=O)N(Cc2cccc(OC)c2OC)CC2CCCO2)ccc1-n1cnnn1 (centres unmarked),-21.8
5,O=C(COc1ncnc2c(Cl)cc(Cl)cc12)N1CCN(S(=O)(=O)c2ccccc2)CC1,16.6
6,Cc1ccc(NS(=O)(=O)c2ccc3c(c2)oc(=O)n3C)c(C)c1,18.6
7,COc1ccccc1N(CC(=O)Nc1ccc2c(c1)OCO2)S(=O)(=O)c1ccccc1,4.51
8,Cc1c(Cl)cccc1NC(=S)NC1CC1,1.29
9,Cc1ccc(C)c(S(=O)(=O)Nc2cc(C)on2)c1,14.8
10,CN(C)S(=O)(=O)c1ccc(C(=O)OCC(=O)Nc2ccc3c(c2)OCO3)cc1,-17.1
11,CCCCc1nc2cc(C(=O)N3CCN(c4nc(C)cnc4C)CC3)ccc2o1,-12.3
12,Br.CCCCCCCCCCCCn1ccc(=N)cc1,-60.2
13,COc1cccc(COC(=O)Cc2ccc(S(=O)(=O)N3CCOCC3)s2)c1OC,-5.44
14,CCOc1ccc2nc(SCC(=O)c3ccc(C)s3)sc2c1,11.1
15,O=C(CCc1ccccc1)NC(=S)Nc1ccc2c(c1)C(=O)OC2,0.437
16,Cc1ccc(CCC(=O)Nc2ccccc2C(=O)O)o1,1.48
17,CC(C)(C)c1ccc(OCc2nc(-c3ccccn3)no2)c(Br)c1,10.7
18,CC(C)CNC(=O)CSc1n[nH]c(=O)n1CCc1ccccc1,22.1
19,CC(C)CN(C(=O)Cn1ccccc1=O)C1CCS(=O)(=O)C1 (centres unmarked),8.22
20,CC1(C(=O)O)CCC(C(=O)Nc2ccc(F)cc2)C1(C)C (centres unmarked),7.21
21,c1ccc(CCc2nn3c(Cn4cnc5ccccc54)nnc3s2)cc1,-19.3
22,O=c1[nH]c(C2CCN(S(=O)(=O)c3ccccc3F)CC2)nc2c1nnn2Cc1ccc(F)cc1,-3.27
